# PubChem BioAssay AID1346428 (National Center for Advancing Translational Sciences (NCATS), 2018)
# “And” between values parts separate entries of the source, which are not always exact repeats. Equal entries are not always repeated. Screen size: about 48,000 compounds; about 1,200 (2.5%) were called active. About 2% were inconclusive and are not listed.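 How the source made its calls: active means activation of at least 60% and not above a set upper limit (about 1 call in 100 departs from these limits); inconclusive means activation of 40% to 60%, or above that upper limit; inactive means activation under 40%.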 The list shows a part of the results.
# Target: Probable G-protein coupled receptor 32 (Homo sapiens) (UniProt O75388)
# Test: qHTS for Agonists of Human Resolvin D1 Receptor DRV1
# Conditions: CHO-K1 GPR32 beta-arrestin PathHunter luminescence, 90 min; at 76.9 µM; stronger effect = higher value; zero percent set by DMSO-only wells
# Procedure, shortened: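 Using DMSO wells as EC0, agonist-induced signal was taken as chemiluminescence from beta-Gal reconstituted upon beta-arrestin recruitment to GPR32 in CHO-K1 cells after 90 min compound treatment.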
# Chain of UniProt O75388 (O75388 whole entry, looked up): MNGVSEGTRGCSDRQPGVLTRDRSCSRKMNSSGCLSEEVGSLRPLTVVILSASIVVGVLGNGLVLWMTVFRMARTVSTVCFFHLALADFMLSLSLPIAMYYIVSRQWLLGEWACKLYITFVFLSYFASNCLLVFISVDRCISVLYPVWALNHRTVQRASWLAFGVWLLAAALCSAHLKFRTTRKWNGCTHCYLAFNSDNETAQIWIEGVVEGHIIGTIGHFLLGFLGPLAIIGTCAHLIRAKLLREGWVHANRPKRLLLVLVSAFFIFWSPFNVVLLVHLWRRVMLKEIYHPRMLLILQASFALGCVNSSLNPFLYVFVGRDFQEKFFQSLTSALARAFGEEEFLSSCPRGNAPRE
row,Structure (SMILES),activation
1,CCc1cccc(NC(=O)CCN2C(=O)c3ccccc3Sc3ncccc32)c1,inactive: -14.2%
2,Cc1cc(=O)n2nc(N(C)CC(=O)NCc3ccc(Cl)cc3)sc2n1,inactive: 2.49%
3,CCOc1ccc(NC(=O)Cn2c(=O)oc3cc(S(=O)(=O)N4CCC(C)CC4)ccc32)cc1,active: 117%
4,O=C(NCC1CCN(Cc2ccc(F)cc2)CC1)c1cc2ccc3cccnc3c2[nH]1,inactive: 6.37%
5,Cc1cc(=O)oc2cc(O[C@@H]3SC[C@@H](O)[C@H](O)[C@H]3O)ccc12,inactive: -2.87%
6,COc1cc(Cl)c(C)cc1NC(=O)c1cc2c(s1)-c1c(C)cccc1OC2,inactive: 5.67%
7,O=C(Cn1c(=O)nc(-c2ccccc2)c2cc(Cl)ccc21)NCCc1ccccc1,inactive: -9.53%
8,Cc1ccc(O)c(-c2n[nH]c3c2C(c2ccccc2F)N(Cc2ccco2)C3=O)c1 (stereo not drawn),inactive: 13.1%
9,CCC(=O)N1CCc2cc(S(=O)(=O)NC(CC(C)C)C(=O)NCc3ccc(C)cc3)ccc21 (stereo not drawn),inactive: -4.94%
10,CCc1nn(CC(=O)N2CCN(c3cccc(C)c3C)CC2)c(=O)c2cc3sccc3n12,inactive: -7.07%
11,COc1cccc(CNC(=O)CCS(=O)(=O)c2ccc3c(c2)CC(C)N3C(=O)C2CC2)c1 (stereo not drawn),inactive: -14.5%
12,Cc1sc2ncn(CC(=O)N3CCN(c4ccc(F)cc4)CC3)c(=O)c2c1S(=O)(=O)N1CCN(c2ncccn2)CC1,inactive: -2.8%
13,Cc1cc2[nH]c(=O)c(=O)[nH]c2cc1S(=O)(=O)Nc1cccc(C(F)(F)F)c1,inactive: -0.845%
14,CCn1cc(C(=O)O)c(=O)c2cc3c(cc21)OCO3,inactive: 3.53% and inactive: 0.199%
15,COc1ccc(OC)c(NS(=O)(=O)c2ccc(Br)s2)c1,inactive: -33.8%
16,CCOc1ccc(NC(=O)c2oc3ccccc3c2NC(=O)Cc2cccc(C)c2)cc1,inactive: -28.5%
17,COC(=O)Nc1nc2ccc(S(=O)c3ccccc3)cc2[nH]1 (stereo not drawn),inactive: 32.8%
18,CN1CCN(CCC(=O)Nc2ccc(Cl)cc2)CC1,inactive: 13%
19,COc1ccc(C(=O)Oc2ccc(C(c3c(C)[nH][nH]c3=O)c3c(C)[nH][nH]c3=O)cc2OC)cc1,inactive: -25.5%
20,CC(C)c1ccc(NC(=O)CCNS(=O)(=O)c2cccc3nsnc23)cc1,active: 75%
21,Cc1cccc(NC(=O)CSc2nc(=O)n(Cc3cccnc3)c3c2CCC3)c1,inactive: -4.58%
22,COc1ccc(NC(=O)c2c(C)oc3ccc(O)c(CN4CCOCC4)c23)cc1,inactive: -1.04%
23,Cc1ccc(NC(=O)Cn2c(=O)ccc3cc(S(=O)(=O)N4CCC(C)CC4)ccc32)cc1C,active: 70%
24,CCCN1C(C(=O)c2ccccc2)=C(OC(=O)c2ccc(C)cc2)c2ccccc2S1(=O)=O,inactive: -32%
25,O=C(COc1ccc(Cl)cc1)NCCc1csc(-c2cccc(F)c2)n1,active: 76.7%
26,COc1cc(NC(=O)c2ncn(-c3ccccc3)n2)cc(OC)c1,inactive: -10.5%
27,CC(=O)c1ccc(NC(=O)CSc2nccn2Cc2ccc3c(c2)OCO3)cc1,inactive: -3.38%

row,Structure (SMILES),activation
1,Cc1cc(SCC(=O)NCc2ccc(F)cc2)nc(=O)[nH]1,inactive: 1.92%
2,Cn1ncc(C(=O)N2CCN(c3ccccc3F)CC2)c1C1CCN(C(=O)OC(C)(C)C)CC1,inactive: -16%
3,CCCCN(CC)CCCNC(=O)c1cn(CC)c2ccc(S(=O)(=O)N3CCOCC3)cc2c1=O,inactive: -0.74%
4,COc1ccc(C2N3CC4(C)CN2CC(c2ccccc2)(C3)C4=O)cc1 (stereo not drawn),inactive: -13.4%
5,CCOc1ccccc1-n1nnc(S(=O)(=O)c2ccc(C)cc2)c1N,inactive: 19.1%
6,Cc1ccc(NC(=O)CSc2nc(-c3ccco3)cc(C(F)(F)F)n2)cc1C,inactive: -7.16%
7,O=C(COCc1cc(-c2ccco2)on1)Nc1cccc(Cl)c1Cl,inactive: -21.6%
8,CCOC(=O)c1cc(-c2ccc(OC)cc2)nn1Cc1ccccc1,inactive: -4.17%
9,Cc1ccc(CSc2nc3c(c(=O)[nH]2)C(c2cccc(F)c2F)CC(=O)N3)cc1 (stereo not drawn),inactive: -1.76%
10,Cc1ccc(C)c(Nc2nnc(-c3ccc(C)c(S(=O)(=O)N4CCCCC4)c3)c3ccccc23)c1,inactive: 7.25%
11,COc1ccc(N2CCN(C(=O)c3nn(-c4ccc(C)cc4)c(=O)n(C)c3=O)CC2)cc1,inactive: -17.6%
12,COc1cc2ncc3c(-c4ccccc4)nn(-c4ccc(C)cc4)c3c2cc1OC,inactive: 6.39%
13,CC(C)c1ccc(NC(=O)C(Cc2ccccc2)NS(=O)(=O)c2ccc3c(c2)CCC(=O)N3)cc1 (stereo not drawn),inactive: -8.3%
14,COc1cccc(CNC(=O)CN(C)S(=O)(=O)c2ccc3c(c2)c(=O)n(C)c(=O)n3C)c1,inactive: -2.9%
15,Cn1nnnc1SCCNCc1ccccc1Cl,inactive: -0.0677%
16,COc1ccc(NC(=O)c2sc3nc[nH]c(=O)c3c2C)cc1OC,inactive: -4.59%
17,Cc1ccc(OCC(=O)Nc2ccc3nc(SCC(=O)N(C)c4ccccc4)sc3c2)cc1,inactive: -13.6%
18,N#C/C(=C\c1ccc(-c2ccc(C(=O)O)cc2)o1)c1nc2ccccc2[nH]1,inactive: 7.95%
19,COc1ccc(Cl)cc1NC(=O)Cn1cc(S(=O)(=O)Cc2cccc(Cl)c2)c2ccccc21,inactive: -5.35%
20,CCc1ccccc1Nc1nn2c(=O)c3ccc(C(=O)NCc4ccccc4Cl)cc3nc2s1,inactive: -8.93%
21,CCOc1ccc(CCNC(=O)c2ccc(CS(=O)Cc3ccc(Cl)cc3)o2)cc1 (stereo not drawn),inactive: -7.32%
22,Cn1c(=O)oc2cc(S(=O)(=O)N3CCC(C(=O)N4CCN(c5cccc(Cl)c5)CC4)CC3)ccc21,inactive: 17.9%
23,CC(C)=CCC/C(C)=C/CO,inactive: 4.55%
24,Cc1ccc(Cn2c(C)c(CNCc3ccc(OC(C)C)cc3)c(C(=O)O)c2C)cc1,active: 85.6%
25,CCCCOc1ccc(C(=O)N(Cc2nc(-c3ccc(Cl)cc3)no2)C(C)C)cc1,inactive: -21.7%
26,CC(=O)N1CCc2cc(Br)cc(S(=O)(=O)CCC(=O)NCCc3ccc(Cl)cc3)c21,inactive: 8.38%
